# Measurements taken from paper PMC12153800.
# Sequences of proteins named here, by UniProt entry; tags and fusion partners are left off. Residues count along the entry.
# UniProt Q9EQD0, residues 27-585: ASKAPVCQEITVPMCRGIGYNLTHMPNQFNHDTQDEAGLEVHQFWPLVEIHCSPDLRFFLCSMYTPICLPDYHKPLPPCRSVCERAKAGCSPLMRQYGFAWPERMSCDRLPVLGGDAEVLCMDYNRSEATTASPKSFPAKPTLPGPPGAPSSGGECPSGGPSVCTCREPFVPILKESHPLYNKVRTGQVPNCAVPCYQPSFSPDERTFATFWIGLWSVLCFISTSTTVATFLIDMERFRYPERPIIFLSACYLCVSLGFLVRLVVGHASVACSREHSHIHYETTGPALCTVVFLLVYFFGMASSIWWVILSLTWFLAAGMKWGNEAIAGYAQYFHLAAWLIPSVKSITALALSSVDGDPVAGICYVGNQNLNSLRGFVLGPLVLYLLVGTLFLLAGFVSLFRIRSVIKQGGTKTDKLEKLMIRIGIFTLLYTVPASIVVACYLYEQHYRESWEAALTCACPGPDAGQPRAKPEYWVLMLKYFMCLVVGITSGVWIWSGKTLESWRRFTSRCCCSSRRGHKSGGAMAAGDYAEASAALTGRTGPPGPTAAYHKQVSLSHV
# Results are given in words; binding and its absence hold for the method and conditions named. Some entries that bind do so weakly or less than the wild type. Where a sequence is shown, tags or fusion partners need not be part of it.
# B1: eGFP-Wnt9a (ligand, UniProt O14904 30-365)
# chain: YFGLTGSEPLTILPLTLEPEAAAQAHYKACDRLKLERKQRRMCRRDPGVAETLVEAVSMSALECQFQFRFERWNCTLEGRYRASLLKRGFKETAFLYAISSAGLTHALAKACSAGRMERCTCDEAPDLENREAWQWGGCGDNLKYSSKFVKEFLGRRSSKDLRARVDFHNNLVGVKVIKAGVETTCKCHGVSGSCTVRTCWRQLAPFHEVGKHLKHKYETALKVGSTTNEAAGEAGAISPPRGRASGAGGSDPLPRTPELVHLDDSPSFCLAGRFSPGTAGRRCHREKNCESICCGRGHNTQSRVVTRPCQCQVRWCCYVECRQCTQREEVYTCKG
# B2: eGFP-Wnt11 (ligand, UniProt O96014 25-354)
# chain: IKWLALSKTPSALALNQTQHCKQLEGLVSAQVQLCRSNLELMHTVVHAAREVMKACRRAFADMRWNCSSIELAPNYLLDLERGTRESAFVYALSAAAISHAIARACTSGDLPGCSCGPVPGEPPGPGNRWGGCADNLSYGLLMGAKFSDAPMKVKKTGSQANKLMRLHNSEVGRQALRASLEMKCKCHGVSGSCSIRTCWKGLQELQDVAADLKTRYLSATKVVHRPMGTRKHLVPKDLDIRPVKDSELVYLQSSPDFCMKNEKVGSHGTQDRQCNKTSNGSDSCDLMCCGRGYNPYTDRVVERCHCKYHWCCYVTCRRCERTVERYVCK
# B3: eGFP-Wnt7a (ligand, UniProt O00755 32-349)
# chain: LGASIICNKIPGLAPRQRAICQSRPDAIIVIGEGSQMGLDECQFQFRNGRWNCSALGERTVFGKELKVGSREAAFTYAIIAAGVAHAITAACTQGNLSDCGCDKEKQGQYHRDEGWKWGGCSADIRYGIGFAKVFVDAREIKQNARTLMNLHNNEAGRKILEENMKLECKCHGVSGSCTTKTCWTTLPQFRELGYVLKDKYNEAVHVEPVRASRNKRPTFLKIKKPLSYRKPMDTDLVYIEKSPNYCEEDPVTGSVGTQGRACNKTAPQASGCDLMCCGRGYNTHQYARVWQCNCKFHWCCYVKCNTCSERTEMYTCK
# B4: eGFP-Wnt8a (ligand, UniProt Q9H1J5 25-351)
# chain: VNNFLITGPKAYLTYTTSVALGAQSGIEECKFQFAWERWNCPENALQLSTHNRLRSATRETSFIHAISSAGVMYIITKNCSMGDFENCGCDGSNNGKTGGHGWIWGGCSDNVEFGERISKLFVDSLEKGKDARALMNLHNNRAGRLAVRATMKRTCKCHGISGSCSIQTCWLQLAEFREMGDYLKAKYDQALKIEMDKRQLRAGNSAEGHWVPAEAFLPSAEAELIFLEESPDYCTCNSSLGIYGTEGRECLQNSHNTSRWERRSCGRLCTECGLQVEERKTEVISSCNCKFQWCCTVKCDQCRHVVSKYYCARSPGSAQSLGKGSA
# B5: eGFP-Wnt1 (ligand, UniProt P04628 28-370)
# chain: ANSSGRWWGIVNVASSTNLLTDSKSLQLVLEPSLQLLSRKQRRLIRQNPGILHSVSGGLQSAVRECKWQFRNRRWNCPTAPGPHLFGKIVNRGCRETAFIFAITSAGVTHSVARSCSEGSIESCTCDYRRRGPGGPDWHWGGCSDNIDFGRLFGREFVDSGEKGRDLRFLMNLHNNEAGRTTVFSEMRQECKCHGMSGSCTVRTCWMRLPTLRAVGDVLRDRFDGASRVLYGNRGSNRASRAELLRLEPEDPAHKPPSPHDLVYFEKSPNFCTYSGRLGTAGTAGRACNSSSPALDGCELLCCGRGHRTRTQRVTERCNCTFHWCCHVSCRNCTHTRVLHECL
# B6: eGFP-Wnt6 (ligand, UniProt Q9Y6F9 25-365)
# chain: LWWAVGSPLVMDPTSICRKARRLAGRQAELCQAEPEVVAELARGARLGVRECQFQFRFRRWNCSSHSKAFGRILQQDIRETAFVFAITAAGASHAVTQACSMGELLQCGCQAPRGRAPPRPSGLPGTPGPPGPAGSPEGSAAWEWGGCGDDVDFGDEKSRLFMDARHKRGRGDIRALVQLHNNEAGRLAVRSHTRTECKCHGLSGSCALRTCWQKLPPFREVGARLLERFHGASRVMGTNDGKALLPAVRTLKPPGRADLLYAADSPDFCAPNRRTGSPGTRGRACNSSAPDLSGCDLLCCGRGHRQESVQLEENCLCRFHWCCVVQCHRCRVRKELSLCL
# Biological target: HiBiT-FZD5-mCherry (NCI-H1703 cells) (mouse) (UniProt Q9EQD0)
# Experiment: confocal microscopy of fluorescent ligand on live cells; NCI-H1703 cells stably expressing HiBiT-FZD(4,5,8,10)-mCherry incubated with eGFP-Wnt conditioned medium (1 h in the methods, 3 h in the legend of Figure 1A), then imaged
row,binding,Binder
1,binds,B1
2,no binding,B2
3,binds,B3
4,binds,B4
5,binds,B5
6,binds,B6
